PubChem BioAssay AID485294 (National Center for Advancing Translational Sciences (NCATS), 2010)
Out of some 370,000 compounds screened, about 150 (0.041%) were called active. The inconclusive results got no clear call from the source; some entries with a clear call stand among them for comparison. Calls follow the shape of the dose curve; as a rule, active = well fitted inhibition curve with a large enough effect; inconclusive = small, poorly fitted or top-dose-only effect; inactive = flat fitted curve, though single readings scatter. Potencies of inconclusive entries are left out as doubtful fits.

Molecular target: Beta-lactamase (Escherichia coli (strain K12)) (UniProt P00811)
Sequence of UniProt P00811 (P00811 whole entry, looked up): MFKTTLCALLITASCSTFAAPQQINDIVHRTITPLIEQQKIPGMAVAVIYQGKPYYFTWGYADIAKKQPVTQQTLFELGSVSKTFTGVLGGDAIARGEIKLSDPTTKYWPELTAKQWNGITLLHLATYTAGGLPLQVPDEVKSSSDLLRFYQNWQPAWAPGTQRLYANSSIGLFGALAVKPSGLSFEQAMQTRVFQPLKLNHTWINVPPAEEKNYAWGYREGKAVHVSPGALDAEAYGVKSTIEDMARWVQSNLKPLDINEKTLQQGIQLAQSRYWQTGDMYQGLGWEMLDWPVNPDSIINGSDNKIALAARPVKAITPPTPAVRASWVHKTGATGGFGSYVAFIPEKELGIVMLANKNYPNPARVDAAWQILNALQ
Assay: qHTS Inhibitors of AmpC Beta-Lactamase (assay with detergent); also: nearly all actives have a fitted effect of over 25% in size;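 as to activity change, negative = inhibition: 0% = no-compound wells and -100% = no-enzyme wells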
Details: AmpC hydrolysis of nitrocefin, absorbance 480 nm, 0.01% Triton; activity change, negative = inhibition: at 114 µM (top of the series)
In short: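 AmpC (5.3 nM in the dispensed reagent) in 20 mM phosphate pH 7.0 with 0.01% (detergent screen) or 0.0001% Triton X-100 was preincubated with compounds for 15 min at room temperature. Nitrocefin was then added from an 800 uM solution, and hydrolysis was followed at 480 nm.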
Potency is read from the fitted curve at half-maximal effect; tags tell the direction and shape of the fitted curve.

Structure (SMILES) | activity change, negative = inhibition | Potency
COc1ccc(O)c(/C=N/NC(=O)c2ccc(N3CCCC3=O)cc2)c1 | inactive: -12.7% | 
Cn1cc(S(=O)(=O)Nc2ccc(Cl)cc2Cl)c(=O)n(C)c1=O |  | inconclusive [inhibitor, single point]
COc1ccc(-c2noc(CSc3nnc(Cc4ccccc4)n3-c3ccc(Cl)cc3)n2)cc1 |  | inconclusive [inhibitor, partial curve, poor fit]
CCOc1ccc(Nc2nc3c(c(=O)[nH]2)CCC3)cc1 |  | inconclusive [inhibitor, full curve, poor fit]
NC(=O)C1CCN(Cc2nc3ccccc3c(=O)[nH]2)CC1 | inactive: 0.515% | 
Cc1ccc(-c2nnc(Sc3nc4ccccc4o3)c3ccccc23)cc1 | inactive: -7.66% | 
COc1cccc(CNCCc2c[nH]c3ccccc23)c1OCc1ccccc1 |  | inconclusive [inhibitor, partial curve, poor fit]
CCCCC(=O)Nc1ccc(NC(=S)NC(=O)c2ccco2)cc1OC |  | inconclusive [inhibitor, full curve, poor fit]
Cc1cc2c3c([nH]c2cc1S(=O)(=O)NCCCOC(C)C)CC(C)(C)CC3=O |  | inconclusive [inhibitor, partial curve, poor fit]
Cc1ccnc(NC(=O)Cn2c(=O)oc3cc(S(=O)(=O)N4CCCC4)ccc32)c1 |  | inconclusive [inhibitor, partial curve, poor fit]
O=C(Cc1ccccc1Cl)N1CCOCC1 |  | inconclusive [inhibitor, full curve, poor fit]
COc1cccc2c(=O)n(CC(=O)NC3CCCC3)ccc12 |  | inconclusive [inhibitor, full curve, poor fit]
CN(C(=O)c1cc2ccccc2cc1O)C1CCCCC1 | inactive: -3.41% | 
O=C(COC(=O)CC1SC(N2CCCC2)=NC1=O)Nc1ccc(Br)cc1 (stereo not drawn) |  | inconclusive [inhibitor, single point]
Cc1cc(C)n(-c2ccc(C(=O)NCc3ccc4c(c3)OCO4)cc2)n1 | inactive: -12% | 
Cn1c(=O)[nH]c(=O)c2c1nc(CN1CCOCC1)n2Cc1ccc(F)cc1 |  | inconclusive [inhibitor, partial curve]
Cc1ccc(OCCn2c(C3CC(=O)N(Cc4ccccc4)C3)nc3ccccc32)cc1 (stereo not drawn) |  | inconclusive [inhibitor, full curve, poor fit]
CCCn1cnc2c(N)c(C)c(C)cc21 | inactive: 6.04% | 
Cn1c(SCC(=O)NCc2cccs2)nnc1-c1ccncc1 |  | inconclusive [inhibitor, partial curve, poor fit]
Cc1ccc(C)c(OCC(=O)NCCN(C)C)c1 |  | inconclusive [inhibitor, full curve, poor fit]
Fc1ccc(NC(=S)Nc2ccc(Cl)cc2)cc1 |  | inconclusive [inhibitor, partial curve]
Cc1ccccc1OCC(=O)Nc1ccc(OCc2cc(=O)n3ccsc3n2)cc1 | inactive: 10.1% | 

Structure (SMILES) | activity change, negative = inhibition | Potency
CC(NS(=O)(=O)OCC(Cl)(Cl)Cl)c1ccc(Br)cc1 (stereo not drawn) |  | inconclusive [inhibitor, full curve, poor fit]
CCN1C(=O)c2cccc3c(S(=O)(=O)Nc4ccncc4)ccc1c23 |  | inconclusive [inhibitor, full curve]
CCOc1ccccc1CNC(=O)C1CCN(S(=O)(=O)c2c(C)noc2/C=C/c2ccc(C)cc2)CC1 | inactive: -0.011% | 
CCN(Cc1ccncc1)Cc1ccc(OC)cc1OC |  | inconclusive [inhibitor, single point]
COc1ccc2c(c1)CCCN2C(N)=O |  | inconclusive [inhibitor, partial curve]
CCC(CC)C(=O)Nc1nnc(CCc2ccccc2)s1 |  | inconclusive [inhibitor, full curve, poor fit]
CC(C)C(=O)Nc1ccc(NC(=O)c2ccco2)cn1 |  | inconclusive [inhibitor, full curve]
CCOC(=O)c1cc2c(=O)n3ccccc3nc2n(CC(C)C)c1=NC(=O)c1ccco1 |  | inconclusive [inhibitor, full curve, poor fit]
COc1ccc(CNC(=O)COC(=O)c2ccc(OCC3CCCO3)cc2)cc1 (stereo not drawn) |  | inconclusive [inhibitor, partial curve, poor fit]
COc1ccc(NC(=O)C(C)n2nnc3sc(-c4ccccc4)cc3c2=O)cc1Cl (stereo not drawn) | inactive: 17.7% | 
COc1cccc(N(CC(=O)NC2CCCCC2)C(=O)CCC(=O)Nc2nccs2)c1 | inactive: -0.289% | 
COc1ccccc1NC(=O)COc1ccc(/C=N/n2cnnc2)cc1OC |  | inconclusive [inhibitor, partial curve, poor fit]
Cc1cc(SCC2=NNC(=O)C2)c(Cl)cc1Cl |  | inconclusive [inhibitor, full curve, poor fit]
FC(F)(F)c1cccc(-c2nnn3c2nc(NC2CCCCC2)c2ccccc23)c1 | inactive: 3.2% | 
COc1ccc(C2=NO[C@@H]3C(=O)N(c4ccc5c(c4)OCCO5)C(=O)[C@H]23)cc1OC |  | inconclusive [inhibitor, single point]
O=C1COc2ccc(C(=O)CSc3nnc(Cc4ccccc4)o3)cc2N1 |  | inconclusive [inhibitor, full curve]
CCCCn1c(SCC(=O)OCC)nc2c1c(=O)[nH]c(=O)n2C |  | inconclusive [inhibitor, full curve, poor fit]
c1cncc(CSc2nnc(-c3cccnc3)n2Cc2ccco2)c1 |  | inconclusive [inhibitor, full curve, poor fit]
O=c1[nH]c2ccc(N/C(=N/S(=O)(=O)c3ccccc3)c3ccccc3)cc2[nH]1 |  | inconclusive [inhibitor, single point]
Nc1nc2ccccc2n1CCOc1ccccc1Cl | inactive: -0.528% | 
Cc1ccc(C(=O)CNc2cccc(Cl)c2)cc1 |  | inconclusive [inhibitor, partial curve, poor fit]
